# Assay results as given in patent publication US20250243260A1 (ALPINE IMMUNE SCIENCES, published 2025).
# Positions count from the first letter of the chain named. Names may count otherwise.
# B1: WT CD80 ECD-Fc IgG4 (Fc fusion)
# chain: VIHVTKEVKEVATLSCGHNVSVEELAQTRIYWQKEKKMVLTMMSGDMNIWPEYKNRTIFDITNNLSIVILALRPSDEGTYECVVLKYEKDAFKREHLAEVTLSVKADFPTPSISDFEIPTSNIRRIICSTSGGFPEPHLSWLENGEELNAINTTVSQDPETELYAVSSKLDFNMTTNHSFMCLIKYGHLRVNQTFNWNTTKQEHFPDNGSGGGGS[omitted - human IgG4 Fc with S228P (EU numbers)]
# notes: also called wildtype CD80 ECD-Fc
# B2: CD80_234-Fc (V11Y, T28Y, M47L, V68L) (Fc fusion)
# chain: VIHVTKEVKEYATLSCGHNVSVEELAQYRIYWQKEKKMVLTMMSGDLNIWPEYKNRTIFDITNNLSILILALRPSDEGTYECVVLKYEKDAFKREHLAEVTLSVKADGSGGGGS[omitted - human IgG4 Fc with S228P (EU numbers)]
# B3: CD80_240-Fc (V11Y, T28Y, D46E, M47V, V68M) (Fc fusion)
# chain: B2 chain with D46E, L47V, L68M
# B4: CD80-CD80-Fc_340 (CD80_185 V11Y/T28Y/M47L; CD80_416) (Fc fusion)
# chain: VIHVTKEVKEYATLSCGHNVSVEELAQYRIYWQKEKKMVLTMMSGDLNIWPEYKNRTIFDITNNLSIVILALRPSDEGTYECVVLKYEKDAFKREHLAEVTLSVKADGGGGSGGGGSGGGGSVIHVTKEVKEYATLSCGYNVSVEELAQYRIYWQKEKKMVLTMMSGDLNIWPEYKNRTIFDITNNLSIVILALRPSDEGTYECVVLKYEKDAFKREHLAEVTLSVKADGSGGGGS[omitted - human IgG4 Fc with S228P (EU numbers)]
# notes: tandem format, tetravalent
# B5: CD80-CD80-Fc_337 (CD80_180 E10G/V11W/T28Y/M47L; CD80_415) (Fc fusion)
# chain: B4 chain with E10G, Y11W, E132G, Y133W
# notes: tandem format, tetravalent after Fc dimerization
# B6: CD80-CD80-Fc_342 (CD80_197 V11Y/E35D/Y87Q/T101R) (Fc fusion)
# chain: B4 chain with Y28T, E35D, L47M, Y87Q, T101R, Y150T, E157D, L169M, Y209Q, T223R
# notes: tandem format, tetravalent
# Tests used:
# [1] = target: CD28 on Jurkat/IL2-reporter cells (UniProt P10747 19-220, limits assumed); test: cell-based or functional assay
# human PD-L1 [2] = target: T1, human PD-L1 (human, UniProt Q9NZQ7); test: flow cytometry, SCC152 cells transduced with human PD-L1; the reference itself
# T1 construct: whole, on cells
# human PD-L1 [3] = target: T1, human PD-L1; test: flow cytometry, SCC152 cells transduced with human PD-L1, anti-human Fc detection
# T1 sequence (Q9NZQ7 19-290): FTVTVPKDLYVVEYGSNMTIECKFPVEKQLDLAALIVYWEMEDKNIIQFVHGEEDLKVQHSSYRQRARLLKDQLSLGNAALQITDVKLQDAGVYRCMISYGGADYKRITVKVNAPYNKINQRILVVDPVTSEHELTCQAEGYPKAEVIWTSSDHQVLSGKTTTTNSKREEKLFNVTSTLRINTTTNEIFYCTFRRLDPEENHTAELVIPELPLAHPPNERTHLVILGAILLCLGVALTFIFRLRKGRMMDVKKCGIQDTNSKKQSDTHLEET
# Procedure: (§1) Binding affinity to CD28 was determined using primary human T cells which endogenously express CD28. Binding to PD-L1 was determined using SCC152 cells transduced with human PD-L1. Binding to CTLA-4 was measured using Chinese hamster ovary (CHO) cells stably transduced to express human CTLA-4.
# (§2) For staining and analysis by flow cytometry, 75,000 human T cells, SCC152/PD-L1 cells, or CHO/CTLA-4 cells were plated in 96-well round-bottom plates. Cells were spun down and resuspended in staining buffer (PBS (phosphate buffered saline), 1% BSA (bovine serum albumin), 1 mM EDTA, and 0.1% sodium azide) for 20 minutes to block non-specific binding. Afterwards, cells were centrifuged, stain buffer aspirated, and then resuspended in 50 μL of a 1:5 serial dilution of each CD80-Fc candidate variant starting at 100 nM ending at 0.8 nM. Primary staining was performed on ice for 60 minutes, before washing cells in […] staining buffer three times. PE-conjugated anti-human Fc (Jackson ImmunoResearch, USA) was diluted 1:250 in 50 μL staining buffer and added to cells and incubated another 30 minutes at 4° C. Cells were washed two times in 150 μL stain buffer and then fixed in 2% formaldehyde/PBS for 5 minutes at room temperature. Samples were analyzed CytoFLEX LX flow cytometer (Beckman Coulter, USA). Median Fluorescence Intensity (MFI) was calculated for each cell type using the CytExpert software from Beckman Coulter.
# (§3) Binding assays were carried out to assess the specificity and affinity of multivalent proteins to cell-expressed CTLA-4, CD28, and PD-L1 counter structures.
# [4] = target: rhu PD-L1 (soluble PD-L1 analyte of the SPR experiments) (human, UniProt Q9NZQ7 fragment, limits assumed); test: SPR (Biacore), variant CD80-Fc captured, PD-L1 as analyte, 120 s association and 240 s dissociation
# [5] = target: T2, human PD-L1 on cells (SCC152/PD-L1, K562/OKT3/PD-L1, HCC827, A704) (human, UniProt Q9NZQ7); test: flow cytometry on HCC827 cells (PD-L1 65K copies), APC anti-human Fc, median fluorescence intensity
# T2 construct: whole, on cells; SCC152 and K562 cells were transduced with PD-L1; HCC827 and A704 are used without a stated transduction of PD-L1; also called cell-surface PD-L1
# Procedure: Cells were spun down and resuspended in staining buffer (PBS (phosphate buffered saline), 1% BSA (bovine serum albumin), 1 mM EDTA, and 0.1% sodium azide) for 20 minutes to block non-specific binding. […] Primary staining was performed on ice for 60 minutes, before washing cells in […] staining buffer three times. […] Samples were analyzed CytoFLEX LX flow cytometer (Beckman Coulter, USA). Median Fluorescence Intensity (MFI) was calculated for each cell type using the CytExpert software from Beckman Coulter.
# human PD-L1 [6] = target: T1, human PD-L1; test: flow cytometry, SCC152 cells transduced with human PD-L1; MFI against WT CD80 ECD-Fc
# Procedure: as §1, §2, §3
Anti-Human Fc (MFI) at 0.8 nM (human PD-L1 [3]) [MFI],Anti-Human Fc (MFI) at 4 nM (human PD-L1 [3]) [MFI],Anti-Human Fc (MFI) at 100 nM (human PD-L1 [3]) [MFI],koff [4] [s⁻¹],Anti-Human Fc (MFI) at 20 nM (human PD-L1 [3]) [MFI],fold change vs WT CD80 @20 nM (human PD-L1 [6]) [fold],other results,Binder
644,652,637,,,,Fold Increase over WT at 50 nM [1]: 1 fold; Rel. Luminescence Units (RLU) 2 nM [1]: 2830 RLU; Rel. Luminescence Units (RLU) 10 nM [1]: 2660 RLU; Rel. Luminescence Units (RLU) 50 nM [1]: 2440 RLU; Rel. Luminescence Units (RLU) 250 nM [1]: 2640 RLU; fold change vs WT CD80 @20 nM (human PD-L1 [2]): 1 fold,B1
,,,0.00863,,,EC50 (read off the curve) [5]: ~6 nM,B2
,,,0.0167,,,,B3
5100,7790,9020,,8600,12.6,,B4
5340,7860,8660,,8720,12.8,,B5
2200,5460,7630,,7500,11,,B6
